Reference: PubChem BioAssay AID463173 (ICCB-Longwood Screening Facility, Harvard Medical School, 2010)
Among all 52,000 compounds or so, about 1,700 (3.3%) were called active. Cut-off read from the data, not from the text of the source: active = survival mostly below about 52% (no sharp cut-off); inactive = mostly above about 56%. Some of the results follow.

System: Wild type
Assay: S. aureus survival, RN4220 and DeltatarO strains – OD600, teichoic acid synthesis inhibitors, primary screen (AID 463173)
Conditions: S. aureus RN4220 wild type/DeltatarO growth, OD600, 18 h, stronger effect = lower value, screened at 18.75 µg/mL (by protocol)

SMILES | survival
Cc1ccc(NC(=O)C(Cc2ccccc2)NS(=O)(=O)c2ccc3c(c2)oc(=O)n3C)cc1F (centres undefined) | inactive: 104%
CCN1CCN(C(=O)c2ccc(S(=O)(=O)N(CC)CC)cc2)CC1 | inactive: 106%
CCCCNC(=O)C1CCC(Cn2c(=O)c3sccc3n(CC(=O)N3CCCC3)c2=O)CC1 (centres undefined) | inactive: 121%
NS(=O)(=O)c1ccc(NC(=O)C2CCCO2)cc1 (centres undefined) | inactive: 90%
Cc1cc(C)cc(NC(=O)C(=O)NCC(c2cccnc2)N2CCc3ccccc3C2)c1 (centres undefined) | inactive: 85%
Clc1cccc(-n2ncc3c(N4CCC(Cc5ccccc5)CC4)ncnc32)c1 | inactive: 88%
COC(=O)c1cccnc1-n1c(=O)c2cccnc2n(CC(=O)Nc2ccccc2F)c1=O | inactive: 84%
CCc1ccccc1NC(=O)c1sc2nc3c(cc2c1N)CN(Cc1ccccc1)CC3 | inactive: 78%
O=C(CSc1nncn2c1cc1sccc12)Nc1ccc(Br)cc1F | inactive: 57%
CCOC(=O)c1c(C)oc2nc(C)nc(NCc3ccc(OC)cc3OC)c12 | inactive: 89%
O=C(Nc1cc(C(F)(F)F)ccc1Cl)c1nc2ccccc2nc1N1CCCCC1 | inactive: 80%
O=C(Cn1c(=O)nc(-c2ccccc2)c2ccccc21)NCc1ccc(Cl)cc1 | inactive: 72%
COc1ccc(Cl)cc1C(=O)N1CCCC1 | inactive: 99%
CCc1ccc(NC(=O)CCn2nc(C)c(S(=O)(=O)N3CCCCC3)c2C)cc1 | inactive: 121%
COc1ccc2c(C)cc(SCC(=O)Nc3nsc(-c4ccccc4C)n3)nc2c1 | active: 1%
CCOC(=O)c1ccccc1NC(=O)Cn1c(=O)n(-c2cccc(C)c2)c(=O)c2c1c1cc(C)ccc1n2C | inactive: 59%
CCOc1ccc(Cn2c(CNS(=O)(=O)c3ccc(Cl)s3)nc3cccnc32)cc1 | inactive: 99%
COc1cccc(N2CCN(S(=O)(=O)c3ccc(-n4cnnn4)cc3)CC2)c1 | inactive: 124%
CCOc1ccccc1NC(=O)C1CCN(S(=O)(=O)c2ccc3c(c2)CC(C)N3C(C)=O)CC1 (centres undefined) | inactive: 87%
O=C(C1CCCCC1)N(Cc1nc2sc3c(c2c(=O)[nH]1)CCCC3)Cc1cccs1 | inactive: 111%
CC(C)(C#N)Nn1cnnc1 | inactive: 112%
COc1cc(C2C(C(=O)Nc3ccccc3C)=C(C)Nc3ncnn32)ccc1OCC(N)=O (centres undefined) | inactive: 85%
O=C(NCC(c1ccc2c(c1)OCO2)N1CCOCC1)c1cccc(Cl)c1 (centres undefined) | inactive: 91%

SMILES | survival
Nc1ccc(N2CCN(c3ncc(C(F)(F)F)cc3Cl)CC2)c(C(F)(F)F)c1 | active: -14%
CCN(CC)C(=O)CSc1nc(-c2ccco2)cc(C(F)(F)F)c1C#N | inactive: 101%
O=C(NCc1ccc(Cl)cc1)C(=O)NCC(c1cccs1)S(=O)(=O)c1cccs1 (centres undefined) | inactive: 72%
COCC(=O)NCc1nc2cccnc2n1Cc1ccc(F)cc1 | inactive: 75%
N#CSc1cnc(NC2CCCCC2)s1 | active: 2%
Cc1ccc(NC(=O)CSc2ccc(-c3cccs3)nn2)cc1Cl | inactive: 109%
CN(c1ccccc1)S(=O)(=O)c1ccc(NC(=O)c2cc(=O)c3ccccc3o2)cc1 | inactive: 75%
O=C(CCn1cnnn1)Nc1ccc(F)cc1 | inactive: 71%
Cc1oc(C)c2c(=O)cc(-c3ccc4c(c3)OCO4)cc(OC(=O)c3cccc(Br)c3)c12 | inactive: 113%
COCc1cc(C)nc(SCC(N)=O)c1C#N | inactive: 99%
COc1ccc(Nc2cc(C(=O)NCCCN3CCN(c4ccc(OC)cc4)CC3)c3ccccc3n2)cc1 | inactive: 80%
CC(C)(C)C(=O)NC1CCN(C(=O)NCc2ccccc2)CC1 | inactive: 102%
OCc1nc2ccc(-c3ccc4nc(CO)[nH]c4c3)cc2[nH]1 | inactive: 99%
Cc1ccc(Cn2c(CNS(=O)(=O)c3ccc(F)c(Cl)c3)nc3cccnc32)cc1 | inactive: 134%
COc1ccc(-n2ncc(C(=O)NCCc3ccsc3)c2C2CCN(C(=O)OC(C)(C)C)CC2)cc1 | inactive: 83%
COc1ccccc1C(=O)Nc1ccc(N2CCN(S(C)(=O)=O)CC2)cc1 | inactive: 103%
Cc1ccccc1CCNC(=O)c1ccc2c(c1)nc1n2CCC(C)C1 (centres undefined) | inactive: 72%
COc1ccccc1C1Nc2ccccc2-n2c(-c3ccccc3)c3c(=O)n(C)c(=O)n(C)c3c21 (centres undefined) | inactive: 65%
CC(=O)Nc1ccc2nc3c(=O)[nH]c(=O)[nH]c3nc2c1 | inactive: 90%
Cc1noc(-c2ccc(N3CCCCC3)c([N+](=O)[O-])c2)n1 | inactive: 78%
CCCN1CC=C2C(C#N)=C(N)C(C#N)(C#N)C(c3ccc(F)cc3F)C2C1 (centres undefined) | inactive: 104%
Cc1cc(NC(=O)c2cccc(Cl)c2)ccc1-c1cc2ccccc2oc1=O | inactive: 89%
CCCCc1nn2c(=O)cc(COC(=O)c3ccc(NC(=O)c4ccccc4C)cc3)nc2s1 | inactive: 93%

SMILES | survival
Cc1cc(F)ccc1NS(=O)(=O)c1ccc(-n2cccn2)cc1 | inactive: 75%
Cc1ccc(CNS(=O)(=O)c2ccc3[nH]c4c(c3c2)CCCC4)cc1 | inactive: 82%
COc1ccc(-c2noc(-c3ccc(N4CCN(c5ccccc5)CC4)c([N+](=O)[O-])c3)n2)cc1OC | inactive: 90%
CCOC(=O)C1(C)C=C(Nc2cccc(C(=O)O)c2)C(=O)N1c1cccc(C(=O)O)c1 (centres undefined) | inactive: 89%
CCOC(=O)c1sc2sc(C(=O)OCC)c(CN(CC)CC)c2c1CN(CC)CC | inactive: 94%
Cc1ccc(CCNC(=O)c2ccc3c(c2)nc2n3CCC(C)C2)cc1 (centres undefined) | inactive: 71%
COc1cc2c(cc1OC)C(COc1ccccc1OC)N(C(=O)COc1ccc(Cl)cc1)CC2 (centres undefined) | inactive: 60%
O=C(C1CCN(c2ncnc3c2nc2n3CCCCC2)CC1)N1CCN(c2cccc(Cl)c2)CC1 | inactive: 57%
COc1ccc(OC)c(CNC(=O)Cc2ccc(NC(=O)N3CCSc4ncccc43)cc2)c1 | inactive: 64%
O=C1CS(=O)(=O)C2(C(=O)N(Cc3ccccc3)c3ccccc32)N1c1ccccc1 (centres undefined) | inactive: 132%
NC(=O)c1sc2nc3c(cc2c1N)CCCCC3 | inactive: 105%
Cc1cc(C)n(CCc2nc3c4ccccc4nc(N4CCN(c5ccccc5)CC4)n3n2)n1 | inactive: 83%
CC(=O)NC1(c2ccccc2)CCN(CC(=O)Nc2c(C)n[nH]c2C)CC1 | inactive: 112%
Cc1ccc(OC(=O)CSc2nnc(-c3ccco3)n2-c2ccccc2)cc1 | inactive: 98%
COc1cccc(CNC(=O)C2CCCCN2S(=O)(=O)c2ccc(F)cc2)c1 (centres undefined) | inactive: 22%
COc1ccc(/C=C/C(=O)Nc2ccc3nc4c(c(Nc5ccccc5OC)c3c2)CCCC4)cc1 | inactive: 93%
O=C(c1ccc2c(c1)N(Cc1cccc(F)c1)C(=O)c1ccccc1S2)N1CCOCC1 | inactive: 68%
Cc1ccc(S(=O)(=O)c2nnn3c2nc(N2CCN(c4ccccc4F)CC2)c2cc(Cl)ccc23)cc1C | inactive: 89%
Cc1ccc(S(=O)(=O)c2nnn3c2nc(N2CCCC2)c2sccc23)cc1C | inactive: 83%
Cc1c(C(=O)Nc2ccccc2)sc2ncn(CC(=O)N3CCOCC3)c(=O)c12 | inactive: 99%
CC(=O)N1c2c(cc(Br)cc2S(=O)(=O)N2CCN(c3cc(C)ccc3C)CC2)CC1C (centres undefined) | inactive: 72%
Cc1ccccc1CN1C(=O)c2ccccc2S(=O)c2ccc(C(=O)NC3CCC(C)CC3)cc21 (centres undefined) | inactive: 75%
CCCCSc1nnc(-c2ccc3[nH]c(C)c(C)c3c2)o1 | inactive: 111%

SMILES | survival
CCc1ccc(NC(=O)c2sc3nc(C)c(Cl)c(C)c3c2NC(=O)c2ccccc2OC)cc1 | inactive: 127%
CC1=C(C#N)C(NC(=O)c2ccccc2Cl)(C(F)(F)F)C(=O)N1 (centres undefined) | inactive: 139%
COc1ccc(OC)c(NC(=O)C2=C(C)C(=O)OC23CCCCCC3)c1 | inactive: 129%
CCN(CC)CCCNC(=O)c1cnc(SC)nc1-c1ccccc1 | inactive: 69%
CCN(CC)CCCNC(=O)c1cn(C)c2ccc(S(=O)(=O)N(C)C3CCCCC3)cc2c1=O | inactive: 126%
Cc1ccc(CN(C(=O)COc2ccc([N+](=O)[O-])cc2)c2ccccn2)cc1 | inactive: 79%
COc1cccc(-c2ncnn2-c2sc3c(c2C#N)CCCCC3)c1OC | inactive: 72%
CCN(C(=O)CSc1nc2ncccc2[nH]1)c1ccc(C(C)C)cc1 | inactive: 69%
O=C(COc1ccc(Cl)cc1)Nc1nnc(S(=O)(=O)N2CCc3ccccc32)s1 | active: 12%
CCOCCc1nn2c(=O)cc(COC(=O)CNC(=O)c3cccc(C)c3)nc2s1 | inactive: 84%
Cc1ccc2c(=O)cc(C(=O)Nc3nc4ccc(Cl)cc4s3)oc2c1C | inactive: 77%
CN1CCN(C(=O)c2ccc(-c3ccccc3)cc2)CC1 | inactive: 110%
Cc1nn(CC(=O)N2CCC(C)CC2)c(=O)c2cc3sccc3n12 | inactive: 80%
CCOc1ccc(CCNC(=O)c2cn(C)c3ccc(S(=O)(=O)N4CCCCCC4)cc3c2=O)cc1OCC | inactive: 77%
CCOc1ccc(NC(=O)c2cnc(N3CCCC3)nc2C)cc1 | inactive: 68%
COc1ccc(CNc2nc3c(-c4cccc(C)c4)nnn3c3ccccc23)cc1 | inactive: 90%
CCOC(=O)c1c(C)[nH]c(C)c1S(=O)(=O)N(C)CC(=O)N1CCN(c2ccccc2)CC1 | inactive: 65%
COc1ccccc1NC(=O)c1c(NCc2ccc(OC)c(OC)c2OC)sc2c1CCC2 | inactive: 85%
CC(C)c1ccc(NC(=O)Cn2cc(S(=O)(=O)N3CCN(c4ccccc4F)CC3)c3ccccc3c2=O)cc1 | inactive: 69%
COC(=O)C1=C(C)OC(N)=C(C#N)C1c1ccco1 (centres undefined) | inactive: 90%
